# Results taken from the supplement of paper PMC3334620.
# The full ranking holds about 33,000 sequences; the median of “E-score (-0.5 to 0.5)” is about -0.035, and the highest 2% start at about 0.35. The list shows a part of the results.
# Molecular target: T1, Pdr3 (UniProt P33200)
# T1 sequence: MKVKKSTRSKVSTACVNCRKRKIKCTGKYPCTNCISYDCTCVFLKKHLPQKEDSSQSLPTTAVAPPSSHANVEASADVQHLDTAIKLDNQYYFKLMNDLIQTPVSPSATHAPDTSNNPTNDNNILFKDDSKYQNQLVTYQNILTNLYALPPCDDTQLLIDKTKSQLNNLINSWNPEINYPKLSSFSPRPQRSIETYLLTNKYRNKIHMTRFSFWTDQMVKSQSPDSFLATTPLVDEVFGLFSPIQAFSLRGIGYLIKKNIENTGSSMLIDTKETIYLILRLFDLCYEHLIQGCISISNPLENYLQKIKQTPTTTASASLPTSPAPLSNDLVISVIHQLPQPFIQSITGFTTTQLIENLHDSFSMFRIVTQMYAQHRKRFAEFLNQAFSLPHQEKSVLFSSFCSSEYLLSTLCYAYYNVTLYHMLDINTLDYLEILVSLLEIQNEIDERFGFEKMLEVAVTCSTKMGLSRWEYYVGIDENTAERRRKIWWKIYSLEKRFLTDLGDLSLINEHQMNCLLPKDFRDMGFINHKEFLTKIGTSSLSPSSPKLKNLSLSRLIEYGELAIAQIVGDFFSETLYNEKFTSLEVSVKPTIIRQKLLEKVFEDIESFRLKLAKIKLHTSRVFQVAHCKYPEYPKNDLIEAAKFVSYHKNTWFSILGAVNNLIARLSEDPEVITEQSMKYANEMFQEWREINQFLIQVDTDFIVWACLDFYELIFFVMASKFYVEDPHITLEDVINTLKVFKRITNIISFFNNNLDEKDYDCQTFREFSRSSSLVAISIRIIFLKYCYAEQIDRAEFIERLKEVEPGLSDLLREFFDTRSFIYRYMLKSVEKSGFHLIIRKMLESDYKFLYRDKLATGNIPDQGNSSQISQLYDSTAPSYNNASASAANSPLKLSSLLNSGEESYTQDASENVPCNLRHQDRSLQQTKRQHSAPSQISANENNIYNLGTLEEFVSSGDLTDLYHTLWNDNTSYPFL
# Experiment: PBM E-score (8-mer binding enrichment) (E-score (-0.5 to 0.5)); higher = stronger / more preferred TF binding; most listed sequences are background and not binding sites
# Conditions: protein concentration: 200 nM; construct: GST-full length
# Method in brief: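 Yeast transcription factors, full-length or as DNA-binding domains, were expressed with a GST tag using PURExpress in vitro transcription/translation. At about 100-200 nM they were applied to universal all-10-mer Agilent arrays, double-stranded by primer extension on fresh or once-stripped slides. Fluorescent anti-GST detected bound protein, and masliner normalised the scans. E-scores for ungapped eight-base words, pooled with reverse complements, came from the Universal PBM Analysis Suite.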
row,Sequence,PBM E-score
1,AGAAGTCA,-0.0968
2,ATACTGTC,0.0455
3,AGGCGCGC,0.165
4,CTCCTGCA,-0.244
5,CATCCGAG,0.225
6,GGCACACA,0.0165
7,CGTGTTAA,-0.135
8,GCTTTCAA,-0.14
9,CGTGCCAC,-0.0378
10,CGACAGAA,0.188
11,ACAAAGGG,-0.197
12,CGGCTACG,0.0442
13,GAGTCTAA,-0.0923
14,AATGAACC,-0.136
15,ACCACCGT,0.0414
16,AATATTCC,0.362
17,ACGGGGGG,-0.222
18,AGCCTCAC,-0.198
19,CCGAATGA,0.285
20,CGGCGCAC,0.318
21,GCTCTGTA,-0.176
22,AGTAAAAA,-0.0778
23,AGTAGGGA,-0.146
24,CTACGCTC,-0.152
25,ATCTCCTC,0.0159

row,Sequence,PBM E-score
1,AAGGGTTA,-0.0743
2,ATTTTGCG,0.0291
3,GCGCCCCC,-0.146
4,CCGTCGAG,0.224
5,AAATAATT,0.157
6,GACGCCGC,0.155
7,ACCCGGCA,0.256
8,CCGCAATA,0.224
9,CAACAAAG,-0.0163
10,ACAGTACG,0.0261
11,GATACGAA,0.033
12,CAAATCGA,-0.256
13,ATACGTTC,-0.216
14,GGTGCTTA,-0.163
15,ACTCTATC,-0.109
16,CGTTTGAA,-0.0722
17,CGTACGAG,-0.135
18,GCGTGAAC,-0.122
19,CTATGAAG,-0.103
20,AAGGTGGC,-0.0289
21,ATGCGCAT,0.165
22,CGATGAGC,0.0308
23,AATAGTAC,-0.0262
24,ATCGGGCG,0.0205
25,ACGCATGG,0.0281

row,Sequence,PBM E-score
1,GATATCGC,0.101
2,ACGTACGG,0.0946
3,GAATAGAA,0.165
4,AGACCGAA,0.0314
5,CTGCTAAG,-0.274
6,AAGCCGTA,0.0211
7,GTGGGTCA,-0.0644
8,AAGGCAGT,-0.037
9,AAGGCATA,-0.143
10,ACACAACG,-0.00062
11,ACTAGACC,-0.0104
12,AACTCGCC,0.0238
13,ATCGGTGC,0.032
14,AATCATTC,0.179
15,ACTTACCG,0.233
16,CACCTGTA,-0.224
17,GGAGGCAC,-0.177
18,ATACAAAG,0.0438
19,GCACACGA,-0.0879
20,CGAGGGCA,0.00512
21,ATCGCTAA,-0.0537
22,TACCCCTA,-0.0685
23,ATATCAAA,0.0882
24,TAGATCTA,-0.243
25,AGCCGTTC,0.0546

row,Sequence,PBM E-score
1,CGCAAGCG,-0.0182
2,GGTCGGAC,0.15
3,AGTGTAGA,-0.358
4,GACAGAGC,-0.289
5,AACTGGGA,0.059
6,GCTACCCA,-0.166
7,AAAAAGGG,0.00252
8,AGGGAAAA,-0.0229
9,AGAGGGTC,-0.288
10,CTGCATTC,0.0676
11,CAACACAC,-0.121
12,AAGTCGTC,-0.211
13,ATGATAAA,0.0837
14,CCCCAAAA,-0.0572
15,ATATACGG,0.0527
16,CATCTAGG,-0.184
17,CTTCGTAA,-0.21
18,CCTAATAA,-0.201
19,ATAAGCCC,-0.171
20,GGATACGA,-0.119
21,ACTCGATG,-0.0837
22,CAGGCCTG,0.122
23,CGCAGGGA,-0.0973
24,CCTCAGGA,-0.107
25,AAAACCCA,-0.00067

row,Sequence,PBM E-score
1,GCTCGCAA,-0.0425
2,ACTGGGTG,-0.11
3,ACTCTTTC,-0.111
4,CCTTCTGA,-0.144
5,ATCTAGAA,-0.197
6,AGTGTTGG,0.123
7,GAGGCGCC,0.00938
8,CGTTGTTA,-0.0419
9,CGAGTACG,0.0664
10,CAACTACG,0.0135
11,TAGGAAGA,-0.204
12,CACCCCAC,0.0293
13,ACCAAGGT,-0.0204
14,TCTGTAAA,-0.00165
15,ACCATCCT,-0.236
16,AAATATCG,0.0646
17,CGCTGGGA,0.103
18,AGACGGGC,0.0159
19,AAGTCTCT,-0.344
20,ATCTACAG,0.15
21,CAATGTGA,-0.068
22,GAGCTCAC,0.0138
23,GCTGGCCA,-0.0882
24,CCTACTTA,-0.273
25,ACAGACAA,0.1

row,Sequence,PBM E-score
1,CGCACGCA,-0.0248
2,CAGGGACA,0.0593
3,GTATTTCA,-0.159
4,AGCTCGGA,0.316
5,ACGGATTC,0.306
6,TATGCGGA,0.321
7,CGAATAAA,0.0582
8,CGAGGCAA,0.0619
9,TCACTCGA,-0.212
10,AGTTGCTA,0.0756
11,CAGACACA,-0.0198
12,CACGGGCG,0.248
13,CTAGGGTC,-0.294
14,AGGCACAG,-0.221
15,ATCGGTAA,0.0906
16,AGCCTTGA,-0.204
17,ACAAAGAA,-0.0116
18,GAATAAGC,-0.115
19,GATCGGAA,0.424
20,ATTAACTG,-0.0295
21,GATAATGC,0.0805
22,GTCTCCTA,-0.12
23,CTGAGGCC,0.0607
24,TGCTAGAA,-0.131
25,AACAGCGT,-0.0559

row,Sequence,PBM E-score
1,CGTGACGC,-0.0528
2,CAAACCCC,-0.166
3,AATCAGCT,-0.0592
4,AGCAGTTA,-0.0291
5,CTTCTCTA,-0.212
6,AATACCTC,-0.0269
7,AAGCCGCC,0.0806
8,ACTAAGGG,0.0252
9,AGAGTACC,-0.161
10,ATGATCAC,-0.0211
11,AACATATT,-0.0137
12,GGTCATTA,-0.209
13,CACCGTGA,0.0395
14,ACGCCGCT,0.0408
15,ACCCGCAG,0.173
16,AAACCTAC,-0.103
17,CATAGTCC,-0.0477
18,AGAACCAT,-0.111
19,GATCTGCA,-0.0215
20,TAATTTAA,0.0774
21,ACGCAAGC,-0.131
22,TCTTCTAA,-0.179
